13 sequences from the supplement of paper PMC10441789 can be followed below.

Assay in all cases: antibody binding signal (normalised fluorescence) (arbitrary fluorescence units); higher = stronger serum antibody binding to peptide
For test [1], the system named is pooled sera of chronic Chagas disease patients, Bolivia. The procedure:
(§1)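 Microarray of 15-residue peptides over residues 30-55 of Trypanosoma cruzi TSSAII, each with 1 to 10 substitutions at naturally variable positions, probed with one serum pool per country.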

The subject of test [2] is pooled sera of chronic Chagas disease patients, Brazil. As to the method:
as §1

The test system of test [3] is pooled sera of chronic Chagas disease patients, Colombia. As to the method: as §1
For test [4], the system named is pooled sera of chronic Chagas disease patients, Mexico. The procedure: as §1
Test [5] deals with pooled sera of chronic Chagas disease patients, USA. The procedure: as §1
For test [6], the system named is pooled sera of uninfected people, Argentina. As to the method:
as §1

The test system of test [7] is pooled sera of uninfected people, Bolivia. The procedure: as §1
Test [8] deals with pooled sera of uninfected people, Brazil. As to the method:
as §1

Test [9] relates to pooled sera of uninfected people, Colombia. The procedure: as §1
For test [10], the system named is pooled sera of uninfected people, Mexico. As to the method: as §1
For test [11], the system named is pooled sera of uninfected people, USA. As to the method:
as §1

The other results are listed elsewhere or left out. Antibody binding of pooled human sera (four to six donors per pool; dilution not stated) to peptides of the Trypanosoma cruzi antigen TSSA on microarrays. Quantile-normalised fluorescence in arbitrary units, mean of duplicate arrays; higher = more binding. No active / inactive call. The uninfected pools are read here as the healthy donors of the same country. The strongest signals lie near the top of the scale (about 60,000).

For PPSGTDKKPATGGTP, the antibody binding signal in [1] was 4300; in [2], 38200; in test [3], 4820; in [4], 43000; in test [5], 3650; in test [6] it was 701. Also, the antibody binding signal is 642 in test [7]; 855 in [8]; 462 in test [9]; 4070 in test [10]; 366 in test [11].
With KEKKAATGETPSQPG, the antibody binding signal stood at 502 in [1]; 28200 in test [2]; 199 in test [3]; 198 in [4]; 7190 in [5]; 258 in test [6]. Further, the antibody binding signal in test [7] worked out at 113; in [8] it was 115; in test [9], 222; in test [10], 95.6; in test [11], 149.
As for GTDNKPAAGGAPSPP, the antibody binding signal in test [1] turned out to be 551; in [2] it was 38800; in test [3], 2510; in test [4] it was 662; in test [5], 1300; in [6], 205. Also, the antibody binding signal in test [7] was determined as 542; in [8], 355; in test [9], 417; in test [10] it was 432; in test [11], 146.
Regarding SGTDKKPATGGAPSQ, the antibody binding signal came out at 804 in test [1]; 28800 in test [2]; 11300 in test [3]; 3130 in test [4]; 2810 in test [5]; 395 in test [6]. In addition, the antibody binding signal in test [7] was 1050; in [8], 163; in [9], 396; in [10], 1760; in test [11], 264.
For the sequence KENKTATGGAPSPSG, the antibody binding signal is 229 in test [1]; 228 in test [2]; 550 in test [3]; 292 in test [4]; 390 in test [5]; 300 in test [6]. The antibody binding signal in test [7] is 124; in test [8], 117; in [9], 100; in test [10], 108; in test [11], 149.
Regarding GKDNKTATGGAPSQP, the antibody binding signal in [1] turned out to be 460; in test [2], 1050; in test [3], 2920; in [4], 2480; in [5], 1680; in [6] it was 359. The antibody binding signal in [7] is 128; in test [8], 134; in test [9], 189; in test [10], 139; in test [11] it was 129.
Consider TPPSGTDKKPAAGGA, for which the antibody binding signal in [1] was 8480; in [2], 45200; in test [3] it was 8290; in test [4] it was 53000; in test [5], 8470; in test [6] it was 1790. Besides, the antibody binding signal in test [7] turned out to be 361; in [8], 1320; in [9], 392; in test [10], 3170; in [11], 520.
For the sequence GKDNKAAAGGTPSPP, the antibody binding signal in [1] amounted to 215; in test [2], 238; in test [3], 1220; in test [4], 774; in test [5] it was 1300; in test [6], 156. Besides, the antibody binding signal was 254 in test [7]; 345 in [8]; 167 in test [9]; 80.2 in [10]; 72.4 in test [11].
Turning to GKENKAAAGEAPSPS, the antibody binding signal was 2250 in test [1]; 22200 in test [2]; 21000 in test [3]; 17000 in test [4]; 25400 in test [5]; 630 in [6]. Also, the antibody binding signal in test [7] worked out at 132; in [8] it was 113; in test [9], 162; in [10], 114; in test [11], 130.
Regarding SGTEKKPAAGEAPSP, the antibody binding signal in test [1] amounted to 1010; in test [2], 11700; in [3] it was 897; in test [4] it was 912; in test [5], 14800; in test [6], 92.9. Further, the antibody binding signal is 678 in [7]; 424 in test [8]; 104 in test [9]; 248 in test [10]; 513 in [11].
In the case of GKEKKTAAGGAPSQS, the antibody binding signal stood at 241 in [1]; 211 in [2]; 4710 in test [3]; 1180 in test [4]; 1160 in test [5]; 123 in [6]. Besides, the antibody binding signal in test [7] came out at 108; in test [8], 119; in test [9], 128; in test [10] it was 96.7; in [11], 141.
Take GTDNKAATGGTPSQP: the antibody binding signal in test [1] is 1260; in test [2], 29700; in [3], 1000; in test [4] it was 533; in [5], 183; in test [6], 355. The antibody binding signal in test [7] came out at 647; in test [8], 2160; in test [9], 199; in test [10], 1030; in test [11] it was 77.9.
On to TEKKAAAGEAPSQSG, for which the antibody binding signal in test [1] is 10900; in test [2], 9940; in test [3] it was 469; in test [4], 645; in test [5] it was 11500; in test [6] it was 109. Further, the antibody binding signal was determined as 356 in [7]; 130 in test [8]; 171 in test [9]; 196 in test [10]; 270 in [11].
